Article PMC6919601, “Identification of Plasmodium dipeptidyl aminopeptidase allosteric inhibitors by high throughput screening” (PLoS ONE, 2019)
Hit rate of the full screen: of about 110,000 compounds, about 230 (0.21%) showed an effect of 50% or more. Some of the results follow.

Target: DPAP1 (Plasmodium falciparum, UniProt Q8IIJ9)
Experiment: primary screen, percent inhibition; read by cleavage of a fluorogenic dipeptide substrate; higher = more effect of the substance
Set-up: species or system P. falciparum D10 trophozoite lysates; single well
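Note: 30 min substrate incubation versus DMSO and 10 µM JCP410 controls.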

Sequence of DPAP1 (Q8IIJ9 whole entry, looked up): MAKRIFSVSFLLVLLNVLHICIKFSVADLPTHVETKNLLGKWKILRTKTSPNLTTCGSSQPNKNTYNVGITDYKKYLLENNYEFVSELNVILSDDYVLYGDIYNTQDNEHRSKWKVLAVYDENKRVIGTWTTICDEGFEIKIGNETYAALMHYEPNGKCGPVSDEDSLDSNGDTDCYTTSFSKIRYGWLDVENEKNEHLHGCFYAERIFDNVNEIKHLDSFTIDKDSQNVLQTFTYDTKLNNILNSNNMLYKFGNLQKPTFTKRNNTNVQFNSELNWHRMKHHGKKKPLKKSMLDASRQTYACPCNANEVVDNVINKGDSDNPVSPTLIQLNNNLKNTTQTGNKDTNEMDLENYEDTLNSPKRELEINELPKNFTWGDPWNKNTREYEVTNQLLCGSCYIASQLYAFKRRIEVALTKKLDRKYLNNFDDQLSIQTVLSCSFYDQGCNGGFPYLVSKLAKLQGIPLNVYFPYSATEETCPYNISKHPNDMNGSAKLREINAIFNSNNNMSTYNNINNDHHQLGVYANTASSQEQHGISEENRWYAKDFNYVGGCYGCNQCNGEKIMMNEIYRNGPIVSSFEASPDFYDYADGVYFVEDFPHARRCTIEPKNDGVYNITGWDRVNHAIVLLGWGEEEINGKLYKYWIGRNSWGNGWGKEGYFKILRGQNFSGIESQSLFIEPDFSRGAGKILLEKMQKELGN

SMILES	% Inhibition @ 10 uM [%]
Cc1cc(-c2ccc(S(=O)(=O)NCc3cccnc3)cc2)on1	-1.32
CCOc1cc(C(=O)N2CCC3(CC2)N=C(c2ccccc2)C(=O)N3)cc(OCC)c1OCC	2.75
CCOc1ccc(-c2[nH]nc3c2C(c2ccc(F)cc2)C(C#N)=C(N)O3)c(OCC)c1 (stereo not drawn)	-1.06
Cn1nc(-c2ccc(OCC(=O)N3CCOCC3)cc2)c2ccccc2c1=O	2
Fc1ccc(CN2CCN(Cc3ccccc3)CC2)cc1Br	3.1
Cc1ccc(-n2nc(C)c3c(C(=O)NCc4ccc(CN5CCCCCC5)o4)cc(C)nc32)cc1	-1.3
CC(C)CC(NC(=O)c1cnc(-c2cccnc2)s1)C(=O)NCC#N (stereo not drawn)	-2.35
CCSc1nc2ccccc2c(=O)n1Cc1ccccc1	-2.83
O=C(CSc1nc2c(sc3ccccc32)c(=O)n1CCc1ccccc1)NCC1CCCO1 (stereo not drawn)	2.24
Cc1ccc(-n2cc(/C=C(\C#N)c3nc4ccccc4[nH]3)cn2)cc1C	-9.11
Cc1cccc(-n2nc(C)c(C(=O)NC(C)C)c2-n2cccc2)c1	3.08
C=CCOC(=O)c1cc(-c2ccc(C=C3C(=O)NC(=O)NC3=O)o2)ccc1Cl	0.997
CC(NC(=O)c1ccccc1C(=O)NC(C)c1ccccc1)c1ccccc1 (stereo not drawn)	1.08
Cc1ccc(-n2nc(C)c3c(C)c(CCC(=O)NCc4ccco4)c(C)nc32)cc1C	-0.72
COc1ccc(-c2cc3c(=O)n(CC(=O)NC4CCCCCC4)ncn3n2)cc1	2.07
O=C1N=C(N2CCCC2)S/C1=C/c1cccc(Br)c1	-0.48
CN(C)CC#CCC(O)(c1ccccc1)c1ccccc1	2.2
Cc1cc(NCc2ccc3c(c2)OCO3)ccc1Br	-1.96
CC(C)OCCCNC(=O)c1ccc(CS(=O)(=O)Cc2ccccc2Cl)o1	1.62
Cc1cc(Cl)ccc1OC(C)C(=O)Nc1sc(C)c(C)c1C(N)=O (stereo not drawn)	6.79
O=C(CSc1nc2ccsc2c(=O)n1Cc1ccccn1)Nc1nccs1	-0.456

SMILES	% Inhibition @ 10 uM [%]
O=C(Nc1ccc(Br)cc1)c1cc(S(=O)(=O)NCc2cccs2)ccc1Cl	-3.49
COc1ccc(-n2nnnc2SCC(=O)c2ccc(O)c(O)c2)cc1	-5.51
O=C(NCc1cccnc1)c1cnn(-c2ccccc2)c1-n1cccc1	0.137
Cc1n[nH]c(C)c1CCCOc1cccc(Cl)c1	-6.12
Cc1ccccc1Cn1c(CNC(=O)c2ccccc2)nc2ccccc21	1.23
FC(F)(F)c1cc(-c2ccccc2)nc(NC2CCCC2)n1	-3.79
Cc1nc2c(-c3ccccc3)c(C)nn2c(C)c1CC(=O)NCCCN1CCCC1=O	-6.09
O=C(C1CC(c2ccc(F)cc2)=NO1)N1CCOCC1 (stereo not drawn)	-3.94
c1ccc(CCN2CCOCC2)cc1	-0.446
CC(=O)N1N=C(c2ccc(Br)cc2)CC1c1ccccc1F (stereo not drawn)	0.206
[O-][n+]1onc2cc(Cl)c3nsnc3c21	7.04
Cc1nn(C)cc1CNC(=O)c1cc(-c2ccccc2)nc2ccccc12	-7.78
COc1ccccc1-c1c(C)nn2c(N3CCOCC3)cc(C)nc12	3.93
Cn1c2ccc([N+](=O)[O-])cc2c2nc3ccccc3nc21	-2.42
COC(=O)c1cc(S(=O)(=O)N(C)Cc2ccco2)c[nH]1	2.27
COc1cccc(C2=CC(c3cccc(OC)c3OC)n3ncnc3N2)c1 (stereo not drawn)	3.32
Cc1cc(C)nc(SCC(=O)Nc2nc(-c3ccccc3)c(C)s2)n1	11.7
CC(=O)Nc1nc(Sc2nc3c(c(=O)n(C)c(=O)n3C)n2Cc2ccccc2Cl)n[nH]1	-2.14
COc1ccccc1NC(=O)C1=C(C)N=C2CCCC(O)=C2C1c1ccccc1C (stereo not drawn)	-0.968
Cc1ccccc1CN1CCN(Cc2c[nH]c3ccccc23)CC1	0.138
COc1ccc(C2CC(=O)NC3=C2C(=O)CC(c2ccc(F)cc2)C3)c(OC)c1 (stereo not drawn)	-3.51

SMILES	% Inhibition @ 10 uM [%]
COc1ccc(-c2cc(C(=O)NCCCN3CCOCC3)c3ccccc3n2)c(OC)c1	5.61
O=C(NCCNS(=O)(=O)c1ccccc1)c1c(O)c2ccccc2oc1=O	-2.51
CC1(C)CC(=O)C2=C(C1)OC(N)=C(C#N)C21CCCC1	1.44
COc1ccc(NC(=O)CN(c2ccc(Oc3ccccc3)cc2)S(C)(=O)=O)cc1	-3.39
O=C(CCCN1C(=O)C(c2ccccc2)Oc2cccnc21)N1CCOCC1 (stereo not drawn)	-1.81
CC(C)Cn1cc(C(=O)NCCN(C)Cc2ccccc2)c2c3ccccc3n(C)c2c1=O	-5.77
COc1ccc(Cl)cc1S(=O)(=O)N1CCCCC1C (stereo not drawn)	-1.54
COc1ccc(C(=O)C2=C(O)C(=O)N(CCN3CCNCC3)C2c2ccc(F)cc2)cc1 (stereo not drawn)	0.487
CCCSc1nc(-c2ccccc2)cc(-c2ccccc2OC)c1C#N	-1.97
Clc1cccc(Cl)c1CN1CCN(c2ccccc2)CC1	4.8
O=C(COc1ccc(Cl)cc1)NC(=O)NCc1ccco1	-5.35
Cc1nc2nc(NC(=O)C3CC3)nn2c(O)c1C	3.66
CC(=O)Nc1ccc(Br)cc1-c1ccccc1	6.53
COc1ccc(-c2nc(CN3C(=O)CSc4nc(C)cc(C)c43)c(C)o2)cc1OC	-5.15
CC1=C(C(=O)NC(C)C23CC4CC(CC(C4)C2)C3)C2(CCCCC2)OC1=O (stereo not drawn)	-5.58
CC(=O)c1ccc(N(/C=C2\Sc3ccccc3C2=O)C(=O)c2ccco2)cc1	9.01
O=S(=O)(NC(c1ccccc1)c1ccccc1)c1ccc(-n2cnnn2)cc1	-4.67
O=C(Nc1ccccn1)c1onc2c1CCCC2	-0.0619
CCNC(=O)c1c(NC(=O)COc2ccc(Cl)cc2)sc2c1CCCC2	14.6
CCOC(=O)c1cnc2ccc(C(=O)OC)cc2c1NCCCN(C)C	4.74
CCOCCCNC(=O)NCc1c(-n2cccc2)sc2c1CCCC2	0.623
